Results from patent US20240141042A1 (INNATE PHARMA, published 2024).

T1: Human NKp46 recombinant proteins (human, UniProt O76036 22-258)
T1 construct: also called recombinant human NKp46 proteins
T1 sequence: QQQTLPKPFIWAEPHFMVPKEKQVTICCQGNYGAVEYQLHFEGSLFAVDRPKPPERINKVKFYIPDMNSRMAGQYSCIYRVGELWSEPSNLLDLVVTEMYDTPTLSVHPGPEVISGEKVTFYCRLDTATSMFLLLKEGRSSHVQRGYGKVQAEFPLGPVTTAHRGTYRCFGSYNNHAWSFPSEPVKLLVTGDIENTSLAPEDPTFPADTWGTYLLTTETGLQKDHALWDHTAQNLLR

B1: CD19-F10A-NKp46-3 (bispecific antibody, human IgG1, kappa)
chain 1: QVQLQQSGAELVRPGSSVKISCKASGYAFSSYWMNWVKQRPGQGLEWIGQIWPGDGDTNYNGKFKGKATLTADESSSTAYMQLSSLASEDSAVYFCARRETTTVGRYYYAMDYWGQGTTVTVSSASTKGPSVFPLAPSSKSTSGGTAALGCLVKDYFPEPVTVSWNSGALTSGVHTFPAVLQSSGLYSLSSVVTVPSSSLGTQTYICNVNHKPSNTKVDKRV[sequence of human IgG1 Fc with N297S (EU numbers) not given]GGGSGGGGSGGGGSGQPREPQVYTLPPSREEMTKNQVSLTCLVKGFYPSDIAVEWESNGQPENNYKTTPPVLDSDGSFFLYSKLTVDKSRWQQGNVFSCSVMHEALHNHYTQKSLSLSPGSTGSEVQLQQSGPELVKPGASVKISCKTSGYTFTEYTMHWVKQSHGKSLEWIGGISPNIGGTSYNQKFKGKATLTVDKSSSTAYMELRSLTSEDSAVYYCARRGGSFDYWGQGTTLTVSSVEGGSGGSGGSGGSGGVDDIVMTQSPATLSVTPGDRVSLSCRASQSISDYLHWYQQKSHESPRLLIKYASQSISGIPSRFSGSGSGSDFTLSINSVEPEDVGVYYCQNGHSFPLTFGAGTKLELK
chain 2: DIQLTQSPASLAVSLGQRATISCKASQSVDYDGDSYLNWYQQIPGQPPKLLIYDASNLVSGIPPRFSGSGSGTDFTLNIHPVEKVDAATYHCQQSTEDPWTFGGGTKLEIKRTVAAPSVFIFPPSDEQLKSGTASVVCLLNNFYPREAKVQWKVDNALQSGNSQESVTEQDSKDSTYSLSSTLTLSKADYEKHKVYACEVTHQGLSSPVTKSFNRGEC
notes: Heterodimer: first chain 157, second chain 156
B2: CD19-F13-NKp46-3 (bispecific antibody, human IgG1, kappa)
chain 1: QVQLQQSGAELVRPGSSVKISCKASGYAFSSYWMNWVKQRPGQGLEWIGQIWPGDGDTNYNGKFKGKATLTADESSSTAYMQLSSLASEDSAVYFCARRETTTVGRYYYAMDYWGQGTTVTVSSASTKGPSVFPLAPSSKSTSGGTAALGCLVKDYFPEPVTVSWNSGALTSGVHTFPAVLQSSGLYSLSSVVTVPSSSLGTQTYICNVNHKPSNTKVDKRV[sequence of human IgG1 Fc not given]TGSEVQLQQSGPELVKPGASVKISCKTSGYTFTEYTMHWVKQSHGKSLEWIGGISPNIGGTSYNQKFKGKATLTVDKSSSTAYMELRSLTSEDSAVYYCARRGGSFDYWGQGTTLTVSSVEGGSGGSGGSGGSGGVDDIVMTQSPATLSVTPGDRVSLSCRASQSISDYLHWYQQKSHESPRLLIKYASQSISGIPSRFSGSGSGSDFTLSINSVEPEDVGVYYCQNGHSFPLTFGAGTKLELK
chain 2: DIQLTQSPASLAVSLGQRATISCKASQSVDYDGDSYLNWYQQIPGQPPKLLIYDASNLVSGIPPRFSGSGSGTDFTLNIHPVEKVDAATYHCQQSTEDPWTFGGGTKLEIKRTVAAPSVFIFPPSDEQLKSGTASVVCLLNNFYPREAKVQWKVDNALQSGNSQESVTEQDSKDSTYSLSSTLTLSKADYEKHKVYACEVTHQGLSSPVTKSFNRGE[sequence of human IgG1 Fc not given]
notes: Heterodimer with dimeric Fc: first chain 179, second chain 178; copies: 1 + 1
B3: CD19-F14-NKp46-3 (bispecific antibody, human IgG1, kappa)
chain 1: QVQLQQSGAELVRPGSSVKISCKASGYAFSSYWMNWVKQRPGQGLEWIGQIWPGDGDTNYNGKFKGKATLTADESSSTAYMQLSSLASEDSAVYFCARRETTTVGRYYYAMDYWGQGTTVTVSSASTKGPSVFPLAPSSKSTSGGTAALGCLVKDYFPEPVTVSWNSGALTSGVHTFPAVLQSSGLYSLSSVVTVPSSSLGTQTYICNVNHKPSNTKVDKRV[sequence of human IgG1 Fc with N297S (EU numbers) not given]TGSEVQLQQSGPELVKPGASVKISCKTSGYTFTEYTMHWVKQSHGKSLEWIGGISPNIGGTSYNQKFKGKATLTVDKSSSTAYMELRSLTSEDSAVYYCARRGGSFDYWGQGTTLTVSSVEGGSGGSGGSGGSGGVDDIVMTQSPATLSVTPGDRVSLSCRASQSISDYLHWYQQKSHESPRLLIKYASQSISGIPSRFSGSGSGSDFTLSINSVEPEDVGVYYCQNGHSFPLTFGAGTKLELK
chain 2: DIQLTQSPASLAVSLGQRATISCKASQSVDYDGDSYLNWYQQIPGQPPKLLIYDASNLVSGIPPRFSGSGSGTDFTLNIHPVEKVDAATYHCQQSTEDPWTFGGGTKLEIKRTVAAPSVFIFPPSDEQLKSGTASVVCLLNNFYPREAKVQWKVDNALQSGNSQESVTEQDSKDSTYSLSSTLTLSKADYEKHKVYACEVTHQGLSSPVTKSFNRGE[sequence of human IgG1 Fc with N297S (EU numbers) not given]
notes: As F13 but with N297S: first chain 181, second chain 180; copies: 1 + 1

What was measured:
human FcRn (Example 10) [1] = molecular target: T2, human FcRn (Example 10) (human, UniProt P55899 fragment; P61769 fragment, limits assumed); assay: SPR, FcRn immobilized on CM5, Steady State
T2 construct: Construct not described; Beta-2-microglobulin is not mentioned; also called recombinant FcRn proteins

[2] = molecular target: T1, Human NKp46 recombinant proteins; assay: SPR, bispecific captured on Protein-A chip, human NKp46 injected, 1:1 kinetic model
Description: SPR measurements were performed on a Biacore T100 apparatus (Biacore GE Healthcare) at 25° C. In all Biacore experiments HBS-EP+(Biacore GE Healthcare) and NaOH 10 mM served as running buffer and regeneration buffer respectively. Sensorgrams were analyzed with Biacore T100 Evaluation software. Protein-A was purchase from (GE Healthcare). Human NKp46 recombinant proteins were cloned, produced and purified at Innate Pharma.
(§1) Protein-A proteins were immobilized covalently to carboxyl groups in the dextran layer on a Sensor Chip CM5. The chip surface was activated with EDC/NHS (N-ethyl-N′-(3-dimethylaminopropyl) carbodiimidehydrochloride and N-hydroxysuccinimide (Biacore GE Healthcare)). Protein-A was diluted to 10 μg/ml in coupling buffer (10 mM acetate, pH 5.6) and injected until the appropriate immobilization level was reached (i.e. 2000 RU). Deactivation of the remaining activated groups was performed using 100 mM ethanolamine pH 8 (Biacore GE Healthcare).
Monovalent affinity study was done following a regular Capture-Kinetic protocol recommended by the manufacturer (Biacore GE Healthcare kinetic wizard). Seven serial dilutions of human NKp46 recombinant proteins, ranging from 6.25 to 400 nM were sequentially injected over the captured Bi-Specific antibodies and allowed to dissociate for 10 min before regeneration. The entire sensorgram sets were fitted using the 1:1 kinetic binding model.

human FcRn (Example 10) [3] = molecular target: T2, human FcRn (Example 10); assay: SPR, FcRn immobilized on CM5, SCK/Two state reaction
Description: SPR measurements were performed on a Biacore T100 apparatus (Biacore GE Healthcare) at 25° C. In all Biacore experiments Acetate Buffer (50 mM Acetate pH5.6, 150 mM NaCl, 0.1% surfactant p20) and HBS-EP+ (Biacore GE Healthcare) served as running buffer and regeneration buffer respectively. Sensorgrams were analyzed with Biacore T100 Evaluation software. Recombinant mouse FcRn was purchase from R&D Systems.
as §1, with “Recombinant FcRn” for “Protein-A”, “FcRn proteins were” for “Protein-A was”, “2500” for “2000”

T2 sequence (P55899 24-297 limits assumed, form in doubt, chain 1 of 2): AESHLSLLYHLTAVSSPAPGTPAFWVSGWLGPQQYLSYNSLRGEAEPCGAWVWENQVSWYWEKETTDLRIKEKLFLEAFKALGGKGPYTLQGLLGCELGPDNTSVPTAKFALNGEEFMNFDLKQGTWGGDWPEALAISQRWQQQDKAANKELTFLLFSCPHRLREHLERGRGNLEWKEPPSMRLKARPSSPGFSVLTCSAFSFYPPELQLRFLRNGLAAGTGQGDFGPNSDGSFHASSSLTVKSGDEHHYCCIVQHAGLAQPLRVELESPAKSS
T2 sequence (P61769 21-119 limits assumed, form in doubt, chain 2 of 2, further chain): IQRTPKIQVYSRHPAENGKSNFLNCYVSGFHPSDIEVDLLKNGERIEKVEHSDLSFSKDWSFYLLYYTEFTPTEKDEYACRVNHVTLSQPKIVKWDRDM

Row | Binder | Kd (human FcRn (Example 10) [1]) [nM] | Kd [2] [nM] | koff [2] [s⁻¹] | kon [2] [M⁻¹ s⁻¹] | Kd (human FcRn (Example 10) [3]) [nM]
1 | B1 | 433 | 29 | 0.00754 | 261000 | –
2 | B2 | – | 68 | 0.00565 | 83000 | –
3 | B3 | – | 62 | 0.00546 | 88300 | 14
